The campaign covered roughly 310,000 compounds. About 14,000 (4.5%) showed an effect of 50% or more. Effects have a minus sign here. The list shows a part of the results.
molecular target: human ether-à-go-go-related gene (hERG) potassium channel (human, UniProt Q12809); assay: primary screen, population patch clamp on CHO cells stably expressing hERG
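Note: peak tail current of the secondary pulse compared with the same well before compound.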

Sequence of human ether-à-go-go-related gene (hERG) potassium channel (Q12809 whole entry, looked up): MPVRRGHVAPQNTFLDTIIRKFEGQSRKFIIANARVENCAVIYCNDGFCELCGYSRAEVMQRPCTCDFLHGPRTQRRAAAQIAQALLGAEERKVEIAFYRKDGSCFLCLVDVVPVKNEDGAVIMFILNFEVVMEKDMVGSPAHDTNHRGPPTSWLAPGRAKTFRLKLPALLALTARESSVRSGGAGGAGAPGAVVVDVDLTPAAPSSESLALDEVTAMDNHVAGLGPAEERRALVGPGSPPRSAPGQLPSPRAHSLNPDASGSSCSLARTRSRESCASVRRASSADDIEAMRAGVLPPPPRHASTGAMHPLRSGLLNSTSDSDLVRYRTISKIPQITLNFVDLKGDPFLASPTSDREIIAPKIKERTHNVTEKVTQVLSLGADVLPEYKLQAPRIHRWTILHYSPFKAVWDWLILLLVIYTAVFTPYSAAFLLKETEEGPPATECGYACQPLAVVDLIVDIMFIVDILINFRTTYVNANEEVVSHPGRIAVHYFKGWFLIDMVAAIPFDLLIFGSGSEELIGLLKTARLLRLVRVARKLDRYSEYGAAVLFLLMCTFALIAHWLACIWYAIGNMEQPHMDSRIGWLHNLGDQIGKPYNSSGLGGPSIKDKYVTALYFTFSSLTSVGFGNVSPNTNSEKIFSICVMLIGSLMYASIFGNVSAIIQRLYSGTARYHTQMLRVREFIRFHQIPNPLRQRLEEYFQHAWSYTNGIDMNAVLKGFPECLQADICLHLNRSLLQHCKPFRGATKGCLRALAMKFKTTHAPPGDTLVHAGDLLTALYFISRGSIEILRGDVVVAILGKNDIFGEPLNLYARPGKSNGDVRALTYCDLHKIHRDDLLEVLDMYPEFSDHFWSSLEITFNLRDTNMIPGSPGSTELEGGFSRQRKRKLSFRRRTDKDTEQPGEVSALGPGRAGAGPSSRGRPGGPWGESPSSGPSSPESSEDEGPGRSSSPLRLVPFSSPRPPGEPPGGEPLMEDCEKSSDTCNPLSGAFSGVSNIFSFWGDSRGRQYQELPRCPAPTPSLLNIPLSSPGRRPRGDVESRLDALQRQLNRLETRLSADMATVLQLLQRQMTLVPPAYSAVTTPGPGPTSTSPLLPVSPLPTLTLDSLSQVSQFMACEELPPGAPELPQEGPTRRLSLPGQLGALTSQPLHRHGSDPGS

Compound	hERG current change (%, negative = inhibition) at 10uM [%]
CCOc1ccc2c(c1)C(C)=CC(C)(C)N2C(=O)Nc1ccccc1	5.9
COc1ccc(OCC(=O)N2CCN(Cc3ccc4c(c3)OCO4)CC2)cc1	-12.2
CCOc1ccc(Br)cc1S(=O)(=O)Nc1nc(CN2CCOCC2)nc2sc(C)c(C)c12	-8.26
COc1ccc([N+](=O)[O-])cc1NC(=O)C(C)OC(=O)CC1CCCC1 (centres unmarked)	-35.7
O=C(O)CC(NC(=O)Cc1ccccc1)c1cc([N+](=O)[O-])ccc1Cl (centres unmarked)	14.1
CCO[C@@H]1OC(C(=O)NC2CC2)=C[C@H](C(C)(C)C)[C@H]1CCCO	9.54
CCCCNC(NCCCC)=C(S(=O)(=O)CC)S(=O)(=O)CC	1.19
O=C(CN(C(=O)CCC(=O)Nc1nccs1)c1ccc2c(c1)OCO2)NCc1ccc(F)cc1	6.42
O=C(Nc1ccnn1C1CCN(C2CCC2)CC1)c1ccccc1	-0.539
NC(N)=NN=C1c2ccccc2-c2ccccc21	11.4
CCCCNC(=O)CSc1nc2ccccc2n1S(=O)(=O)c1ccc(Cl)cc1	11
O=C(CCNC(=O)c1ccc(Br)cc1)NCC1CCCO1 (centres unmarked)	3.3
O=C(Nc1ccccc1F)c1ccco1	11.8
COc1ccc(-c2nc(CS(=O)CC(=O)NCc3ccccc3)c(C)o2)cc1OC (centres unmarked)	-7.51
CC(C)(C)NC(=O)COC(=O)CCC(=O)c1ccc(Cl)cc1	4.85
O=C(NC1CC1)C1CC(=O)N(c2cccc(Cl)c2)C1 (centres unmarked)	9.4
CCOC(=O)c1nc(S(C)(=O)=O)ncc1N1CCOCC1	14.8
Cc1ccc(C)c(SCC(=O)c2ccc[nH]2)c1	-14.8
Cc1nc2ccc([N+](=O)[O-])cc2nc1C	3.55
CCOC(=O)c1ccc(NC(=O)C2CCCN(S(=O)(=O)c3cnc[nH]3)C2)cc1 (centres unmarked)	6.66
Cc1ccc(-c2ccc(=O)n(CC(=O)NCCN(CC(C)C)CC(C)C)n2)cc1	-16.3
Cc1cccc(OCCNC(=O)c2cncc(Br)c2)c1	-16.2
O=C(ONc1ccc(N=NC(=O)c2ccccc2O)cc1)c1ccccc1	-0.285

Compound	hERG current change (%, negative = inhibition) at 10uM [%]
NNC(=O)c1[nH]c2ccc([N+](=O)[O-])cc2c1-c1ccccc1	14.4
CCOc1cc(NS(C)(=O)=O)c(OCC)cc1NC(=O)c1cccs1	-15.8
COC(=O)c1ccc(/C=N\NC(=O)CC(=O)NCCc2ccccc2)cc1	19.8
COc1ccc(Cl)cc1C(=O)OCC(=O)NC(=O)c1cccn1C	-9.51
CC(=O)C1C(c2ccc(Cl)cc2)c2c(noc2C)CC1(C)O (centres unmarked)	12.2
COc1cc(C=O)ccc1OCc1ccccc1Br	-2.64
NS(=O)(=O)c1ccc(NC(=O)COC(=O)C2(c3ccc(F)cc3)CCCC2)cc1	9.44
COc1ccc(Nc2nnc(SCC(=O)NC3CC3)s2)cc1	-7.7
Cc1c2cnn(CC(=O)N3CCOCC3)c(=O)c2c(C)n1Cc1ccccc1F	7.04
CCN1CCN(C(=O)c2nn(-c3ccccc3)c(=O)c3ccccc23)CC1	-2.92
O=C(c1ccco1)N1CCN(C(c2cccs2)c2nnnn2C2CCCCC2)CC1 (centres unmarked)	-42.9
CC(NC(=O)CCC(=O)N1CCCCCC1)c1ccccc1 (centres unmarked)	19.4
Cc1ccc(-c2nn(-c3ccccc3)cc2C2SCC(=O)N2Cc2ccccc2)o1 (centres unmarked)	28.9
NC(=O)c1ccsc1NC(=O)c1ccco1	-0.908
Cc1cc(Cl)ccc1OCC(=O)Nc1cccc(S(=O)(=O)N2CCCC2)c1	-1.87
CC(=O)Nc1ccc(NC(=O)COC(=O)c2n[nH]c3ccccc23)cc1	4.1
O=C(O)CCNS(=O)(=O)c1ccc2c(c1)CCCC2	24.4
O=C(O)c1cc(Cl)ccc1-c1ccc(/C=C/c2cc(C(F)(F)F)[nH]c(=O)n2)o1	11.2
COC(=O)c1ccc2ccn(CC(=O)NC3CCCCC3)c2c1	1.81
Cc1nc2ccc(NC(=O)N3CCN(c4ccccn4)CC3)cc2s1	-7.27
COc1ccc(/C=C(/NC(=O)c2ccccc2Cl)C(=O)O)cc1	11.2
O=C(CCNS(=O)(=O)c1ccc(Cl)cc1)OCC(=O)c1ccc[nH]1	-22.9
CCOC(=O)c1c(O)c2c(n(Cc3ccco3)c1=O)CCCC2	14

Compound	hERG current change (%, negative = inhibition) at 10uM [%]
CSc1ccc(CN(C)Cc2cc(=O)oc3c(C)c(C)ccc23)cc1	2.99
O=C(NC1CCC(C(=O)O)CC1)OCc1ccccc1 (centres unmarked)	21.9
CCC(=O)N(Cc1cc(=O)[nH]c2ccccc12)c1ccccc1OC	3.26
CCN1CCN(c2nc(-c3ccccc3Cl)nc3ccccc23)CC1.Cl	-69.9
COCCNc1nnc(SCC(=O)Nc2cc(C)on2)s1	4.13
Oc1ccc(C[C@@H]2CNCCN2CCc2cccc(F)c2)cc1	-35.7
Cc1cc2c([nH]c3ccccc32)c(C)[nH+]1.[Cl-]	-22.7
CC1=C(C(=O)Nc2ccccc2C(=O)N2CCC(C)CC2)SCCO1	12
CCOC(=O)CNC(=O)CSc1nc(-c2ccc(OC)cc2)ns1	-6.8
Cl.NC1CCN(c2cccc(Cl)n2)CC1	-1.4
CCN(Cc1ccncc1)C(=S)NCc1ccccc1	-3.62
O=C(CSC1=NCCS1)c1ccc(Cl)cc1	16.3
CSc1ccc(Cl)c(C(=O)OCC(=O)N2CCN(C(=O)c3ccco3)CC2)c1	-30.5
Cc1cc(Oc2ncccc2[N+](=O)[O-])c2cc(Cl)ccc2n1	3.03
Cc1ccc(CN2C(=O)C(=O)N(CC(N)=O)C2=O)cc1	13.7
O=C(Nc1ccc2c(c1)OCO2)C1CC(=O)N(c2ccc3c(c2)OCCO3)C1 (centres unmarked)	24.9
CC1=C2C(=O)C3C(CC=C4CC(OC5OC(O)C(O)C(O)C5CO)CCC43C)C2CCC12OC1CC(C)CNC1C2C (centres unmarked)	-22.6
CCOC(=O)C(C(=O)N(C)C)c1ncc(C(F)(F)F)cc1Cl (centres unmarked)	-1.05
O=C(N/C(=C\c1ccc([N+](=O)[O-])cc1)C(=O)N1CCOCC1)c1ccco1	-69.2
O=C(CSc1nnc2c(Cl)cc(Cl)cn12)N1CCOCC1	-6.52
Cc1ccc(NC(=O)C[n+]2ccccc2)cc1C.[Cl-]	11.1
COC(=O)c1cccc(N(C(=O)c2cnccn2)C(C(=O)NCc2ccccc2)c2ccco2)c1 (centres unmarked)	3.59
CCCCNC(=O)COC(=O)CCC(=O)c1ccc(Cl)cc1	-3.97

Compound	hERG current change (%, negative = inhibition) at 10uM [%]
CCCc1cc(Nc2ccccc2C)n2ncnc2n1	1.38
Cc1cc(Cl)ccc1Oc1ncc(CN2CCN(c3ccccc3)CC2)s1	7.19
Cc1cccc(Nc2ccccc2)c1	-10.5
CCOC(=O)c1cnc2c(cnn2C)c1NCc1ccc(OC)cc1	16
O=C(N/N=C/c1cccc(Oc2ccccc2)c1)c1ccncc1	14.4
Cc1ccccc1Nc1c(-c2ccccn2)nc2ccccn12	-8.45
Fc1ccc(NC(=S)Nc2cccnc2)c(Cl)c1	16.6
Cc1ccc(-n2c(C)nc3ccccc3c2=O)cc1C	-52.2
Cn1ncc(Br)c1NC(=O)Nc1ccc(OC(F)(F)F)cc1	8.82
O=C(COc1ccccc1/C=C1\SC(=O)NC1=O)Nc1ccc(F)cc1	1.31
Cn1c(O)c(C=NC2CC(C)(C)NC(C)(C)C2)c(=O)n(C)c1=O	-4.93
CN1CCN(/N=C/c2ccc(N(c3ccccc3)c3ccccc3)cc2)CC1.Cl	9.14
COc1cc(OC)cc(-c2oc(=O)c3cc(OC)c(OC)cc3c2/C=C/c2ccc(F)cc2)c1	4.91
CCCn1c(SCC(=O)N2CCCC2)nc2c1c(=O)n(C)c(=O)n2C	-13.9
O=C(Nc1cccnc1)c1c(F)cccc1F	11.2
COc1ccccc1N1CCN(C2CCCN(C(=O)c3oc(C)cc3C)C2)CC1 (centres unmarked)	-47.9
Nc1ncc(Br)cc1S(=O)(=O)NCCC(=O)NCCc1ccccc1	-2.89
O=C(Cc1ccccc1)NNC(=S)Nc1ccccc1	16.5
Cc1ccc(NC(=O)c2ccc3c(c2)OCCO3)cc1	5.67
Nc1ccccc1SCc1c(Cl)cccc1Cl	1.5
COc1cc(N)ccc1NC(=O)c1cccs1	-6.04
Cn1c(=NC(=O)COc2ccccc2)sc2ccccc21	-8.07
CCSc1nc2nn(-c3ccccc3)c(=O)c-2c2n1CCCCC2	-17.1

Reference: publication PMC4336329 (PLoS ONE, 2015)
